Results on six molecules are retold here after publication PMC7733951.

Residue numbers refer to the chain shown, from its start. Names may count otherwise. These are yes or no findings as the source states them, for the method shown. Some binding calls cover weakened binding; strength is not graded here. Sequences can lack the tags named with a protein.

T1: FtsI (cya^T25-ftsI fusion from pKT25-ftsI) (E. coli) (UniProt P0AD68)
T1 sequence: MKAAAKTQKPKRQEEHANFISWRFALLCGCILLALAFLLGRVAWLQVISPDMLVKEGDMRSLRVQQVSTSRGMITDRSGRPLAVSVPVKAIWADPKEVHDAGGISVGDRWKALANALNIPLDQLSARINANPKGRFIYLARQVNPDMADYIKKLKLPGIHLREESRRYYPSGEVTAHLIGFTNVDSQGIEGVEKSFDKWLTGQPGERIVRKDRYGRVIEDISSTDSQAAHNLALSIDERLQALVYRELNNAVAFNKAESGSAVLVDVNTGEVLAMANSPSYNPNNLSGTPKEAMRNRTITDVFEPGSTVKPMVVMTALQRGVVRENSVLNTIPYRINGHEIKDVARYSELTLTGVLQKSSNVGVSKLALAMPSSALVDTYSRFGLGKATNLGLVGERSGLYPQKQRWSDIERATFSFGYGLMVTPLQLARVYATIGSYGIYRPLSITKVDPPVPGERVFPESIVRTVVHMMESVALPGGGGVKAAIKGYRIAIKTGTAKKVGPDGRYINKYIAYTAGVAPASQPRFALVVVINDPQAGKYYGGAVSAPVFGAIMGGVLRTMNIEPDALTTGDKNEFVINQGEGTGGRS

T2: FtsW (cya^T25-ftsW fusion from pKT25-ftsW) (E. coli) (UniProt P0ABG4)
T2 sequence: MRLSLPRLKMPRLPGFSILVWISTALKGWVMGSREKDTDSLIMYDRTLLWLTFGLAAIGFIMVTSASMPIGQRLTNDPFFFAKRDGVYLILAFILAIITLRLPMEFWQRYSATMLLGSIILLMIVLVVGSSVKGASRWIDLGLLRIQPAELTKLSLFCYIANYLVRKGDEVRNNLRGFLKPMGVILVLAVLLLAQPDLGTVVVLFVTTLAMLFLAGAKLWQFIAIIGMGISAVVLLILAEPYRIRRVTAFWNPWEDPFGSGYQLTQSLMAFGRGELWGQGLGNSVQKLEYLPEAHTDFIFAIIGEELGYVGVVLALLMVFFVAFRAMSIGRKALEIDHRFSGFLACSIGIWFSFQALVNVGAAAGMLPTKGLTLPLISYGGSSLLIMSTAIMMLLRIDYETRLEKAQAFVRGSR

B1: FtsL^Δ1-30 carrying the two activation mutations E88K and G92D (T18 fusion) (domain or fragment, UniProt P0AEN4 30-121)
chain: DDLLRFGKLPLCLFICIILTAVTVVTTAHHTRLLTAQREQLVLERDALDIEWRNLILEKNALDDHSRVERIATEKLQMQHVDPSQENIVVQK
B2: FtsL^Δ1-30 (cya^T18-ftsL^30-121 fusion from pUT18C-ftsL^30-121) (domain or fragment, UniProt P0AEN4 30-121)
chain: B1 chain with K59E, D63G
B3: FtsL^Δ1-30 carrying E88K, G92D and the dominant negative mutation E87K (T18 fusion) (domain or fragment, UniProt P0AEN4 30-121)
chain: B1 chain with E58K
B4: FtsL (cya^T18-ftsL fusion from pUT18C-ftsL) (protein, UniProt P0AEN4 1-121)
chain: MISRVTEALSKVKGSMGSHERHALPGVIGDDLLRFGKLPLCLFICIILTAVTVVTTAHHTRLLTAQREQLVLERDALDIEWRNLILEENALGDHSRVERIATEKLQMQHVDPSQENIVVQK
B5: FtsL^L24K/I28K/E88K/G92D (T18 fusion) (protein, UniProt P0AEN4 1-121)
chain: B4 chain with L24K, I28K, E88K, G92D
B6: FtsL^L24K/I28K (T18 fusion) (protein, UniProt P0AEN4 1-121)
chain: B4 chain with L24K, I28K

The first test addresses T1, FtsI (cya^T25-ftsI fusion from pKT25-ftsI) (E. coli). Put plainly: two-hybrid; bacterial two-hybrid (BACTH) in E. coli cya strain DHM1; ftsL alleles in pUT18C (T18), ftsW, ftsI or ftsQ in pKT25 (T25); three transformants spotted on LB plates with X-Gal and 0.5 mM IPTG, colour recorded after overnight incubation.
For B1, the binding entry was “binds”.

Turning to B2, the binding result was “no binding”.

Regarding B3, the binding entry is given as “no binding”.

On to B4, for which the binding result is given as “binds”.

As to B5, the binding entry was “binds”.

With B6, the binding result was “no binding”.

Another test concerns the target T2, FtsW (cya^T25-ftsW fusion from pKT25-ftsW) (E. coli). The test is described as above.
In the case of B1, the binding result is recorded as “binds weakly”.

B2: the binding result is listed as “no binding”.

As for B3, the binding result is recorded as “no binding”.

For the molecule B4, the binding result is recorded as “binds”.

B5: the binding entry is on record as “binds weakly”.

Consider B6, for which the binding entry is “no binding”.
